Each structure is given as a SMILES string.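 1) Cells in 96-well plates. 2) Compound, 48 h, 5 concentrations. 3) Linear interpolation between surrounding doses. 4) Unreached endpoint = highest concentration. The concentration for 50% growth inhibition is given as GI50.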 Active and inactive are the calls of the source. Cut-off read from the data, not from the text of the source: active = GI50 up to about 1.1 µM and inactive = higher. Bounds are passed on as bounds.

This assay concerns NCI-H322M. Nature of the assay: growth of human tumour cells (NCI), 48 h.
As for `NC(CCC(=O)NC(CSC(=O)N(O)c1ccc(Cl)cc1)C(=O)NCC(=O)O)C(=O)O` (configuration not stated), the GI50 is active: > 0.5 µM.
For the compound `O=C(CCn1ccnc1[N+](=O)[O-])NCCCn1ccnc1[N+](=O)[O-]`, the GI50 is inactive: > 100 µM.
Regarding `CC(C)(C)CC(C)(C)c1cc(O)c(O)c(CN2CCCCC2)c1`, the GI50 was inactive: 15.8 µM.
As to `CCOC(=O)CCc1c(C)c2ccc(O)cc2oc1=O`, the GI50 was inactive: > 100 µM.
In the case of `COc1ccccc1NC(=O)C1=C(C)NC(C)=C(C(=O)Nc2ccccc2OC)C1c1ccc(N(C)C)cc1`, the GI50 is inactive: 38.9 µM.
Take `COc1ccc(-c2onc(-c3c(C)cc(C)cc3C)c2C2=NCCCN2)cc1`: the GI50 was inactive: 46.1 µM.
Take `O/N=C(\c1nc2ccc(Cl)cc2nc1O)C(O)c1ccc(Cl)cc1Cl` (configuration not stated): the GI50 was inactive: > 100 µM.
The result for `COc1ccc(NC2C(=O)C3(C)CCC2C3(C)C)cc1` (configuration not stated) reads inactive: > 100 µM; that for `COC1(c2cccs2)c2ccccc2C(OC)(c2cccs2)c2ccccc21` (configuration not stated), inactive: 40.7 µM.
As for `CC(C)/C(Cl)=N/OC(=O)Nc1ccc(Cl)c(Cl)c1`, the GI50 was inactive: 16.1 µM.
On to `O=C(c1ccccc1)n1c(Cc2ccccc2)nc2cc(C34CC5CC(CC(C5)C3)C4)ccc21`, for which the GI50 was inactive: > 100 µM.
In the case of `N#CC1CCCCCCCCCCC(=O)N(CCCl)C1=O` (configuration not stated), the GI50 is inactive: > 100 µM.
For the compound `c1ccc(NN=C(c2ccccn2)c2ccccn2)nc1`, the GI50 is active: 0.345 µM.
Take `C/C(=N\NC(=S)NCCNC(=S)N/N=C(\C)c1ccccn1)c1ccccn1`: the GI50 is inactive: 2.44 µM.
For the compound `Cc1nnc2cc(C(=O)O)c3ccccc3n2c1=O`, the GI50 is inactive: > 10 µM.
Consider `CCOC(=O)CCc1cn2cc(Br)nc(OC)c2n1`, for which the GI50 was inactive: > 100 µM.
Regarding `Oc1ccc2ccccc2c1NCn1nc(CCCCCCCCc2nn(CNc3c(O)ccc4ccccc34)c(=S)o2)oc1=S`, the GI50 was inactive: > 100 µM.
The result for `O=C(O)Cc1cc(=O)[nH]c2c1/C(=N/O)CCC2` reads inactive: > 100 µM; that for `C/C(CC(=O)Nc1cccc([N+](=O)[O-])c1)=N\NC(=O)CC#N`, inactive: > 100 µM; that for `Cc1nc2ccccc2[nH]/c1=N/Nc1ccccc1`, inactive: 25.2 µM.
As to `C(=N/c1ccccc1C1SCCCS1)/c1ccccc1`, the GI50 is inactive: > 100 µM.
As for `CNS(=O)(=O)NN(C)S(=O)(=O)c1ccc(Cl)cc1`, the GI50 was inactive: > 100 µM.
With `COc1ccc(OC)c([N+](=O)[O-])c1-c1nc2sc(C)cn2c1/C=N/N=C(N)N`, the GI50 is inactive: 13.6 µM.
For the compound `COc1ccc(/C=C/C(=O)Oc2cc(O)cc(O)c2)cc1`, the GI50 is inactive: > 100 µM.
The result for `CCCSc1ccc2[nH]c(/N=C/c3ccco3)cc2c1` reads inactive: 31.5 µM; that for `COC(=O)CCc1cc(OC)c(O)c(C(Cc2ccc(OC)c(OC)c2)C(=O)OC)c1` (configuration not stated), inactive: > 100 µM; that for `O=[N+]([O-])C(C(Cl)=C(Cl)Cl)=C(n1cncn1)n1cncn1`, inactive: > 84.1 µM.
The result for `C[C@]12CCC(=O)C=C1CC[C@@H]1[C@@H]2[C@@H](O)C[C@@]2(C)[C@H]1CC[C@]2(O)C(=O)COC(=O)C1CCCC1` reads inactive: > 100 µM.
Under `CCOC(=O)/C(C#N)=C(N)/C(=N\Nc1cccc(C(F)(F)F)c1)C(=O)OCC` stands inactive: > 100 µM.
Turning to `N#C/C(=C/c1ccc[nH]1)P(=O)(O)O`, the GI50 was inactive: > 100 µM.
As to `Cc1cc(C)nc(NS(=O)(=O)c2ccc(NNc3c4ccccc4nc4c(C(=O)Nc5ccc(S(=O)(=O)N=C(N)N)cc5)cccc34)cc2)n1`, the GI50 is inactive: 29.9 µM.
With `COC(=O)C1=C(C[S+]([O-])c2ccccc2[N+](=O)[O-])ON(C)C1c1ccccc1` (configuration not stated), the GI50 is inactive: > 100 µM.
Take `C=C1[C@@H]2CCC3[C@]4(C)C(CC[C@@]5(C)C(=O)O[C@H](O)[C@@H]45)[C@H](O)[C@]3(C2)[C@H]1OC1OC(CO)C(O)C(O)C1O` (some centres not stated): the GI50 was inactive: > 50 µM.
The result for `COc1cccc2c1OC1Sc3ccccc3-c3nn(-c4ccccc4)c-2c31` (configuration not stated) reads inactive: > 100 µM; that for `CC(=O)c1ccc2c(c1)CC1(C2)Cc2ccccc2C1=O` (configuration not stated), inactive: 48.9 µM.
For `CN(/N=C\c1ccc2ccccc2c1)C1=NCCN1`, the GI50 is inactive: 17.6 µM.
With `CCCCN(C)C(=O)C1=C(C)NC(C)=C(C(=O)N(C)CCCC)C1`, the GI50 is inactive: > 100 µM.
As for `C/C(=N\N=C1/C(=O)OC(c2ccccc2)=C1C(=O)c1ccccc1)c1ccc([N+](=O)[O-])cc1`, the GI50 is inactive: 91 µM.
On to `CNS(=O)(=O)NN(C)S(=O)(=O)c1ccc(C)cc1`, for which the GI50 was inactive: > 100 µM.
For `c1ccc(C2C3=C(Nc4ncnn42)c2ccccc2C3)cc1` (configuration not stated), the GI50 is inactive: 36.7 µM.
In the case of `Cc1ccc(SCC(CF)OCn2cc(F)c(=O)[nH]c2=O)cc1` (configuration not stated), the GI50 was inactive: > 100 µM.
Consider `OCc1cc2c(ccc3sc4ccc5sc6ccc7ncccc7c6c5c4c32)s1`, for which the GI50 was inactive: 5.71 µM.
`O=C(O)c1c2c(cc3c(=O)c4ccccc4[nH]c13)CCCC2`: the GI50 was inactive: > 100 µM.
Turning to `CCOC(=O)c1nc2cc(C(F)(F)F)ccc2nc1Oc1ccc(OC)cc1`, the GI50 was inactive: > 100 µM.
For `CCCCC(C(=O)C(=O)Nc1ccc(C)cc1C)C(=O)C(C)C` (configuration not stated), the GI50 is inactive: > 100 µM.
Take `CCOC(=O)N1[C@@H]2CCC[C@@H]2C(=O)[C@@H]2CCC[C@@H]21`: the GI50 is inactive: > 100 µM.
With `O=C1C2=C(c3ccccc31)C(c1ccccc1)NC(S)=N2` (configuration not stated), the GI50 is inactive: 50.7 µM.
Under `Nc1ccccc1SC(/C=C/NNC1=NN=C(c2ccccc2)C(c2ccccc2)N1)c1ccccc1` (configuration not stated) stands inactive: 16.2 µM.
On to `C=CCNC1=C(C(=O)OCC)C(=O)CO1`, for which the GI50 was inactive: > 100 µM.
The result for `O=C1C(=Cc2ccc(F)cc2)C(=O)c2ccccc21` reads inactive: > 100 µM.
With `C1=N\CCNCC/N=C/c2ccccc2OCc2cccc(n2)COc2ccccc2/1`, the GI50 is inactive: 63.4 µM.
Consider `CO/C1=C\C(C)=C\C(C)C(O)C(C)C/C(C)=C/C=C/C(OC)C(C(C)C(O)C(C)C2(O)CC(O)C(C)C(C(C)C)O2)OC1=O` (configuration not stated), for which the GI50 is active: 0.00127 µM.
Under `CC(C)C(Sc1nc(-c2ccccc2)c(-c2ccccc2)[nH]1)C(=O)NNC(=S)Nc1ccccc1` (configuration not stated) stands inactive: 23.3 µM; under `Cc1cccc(/C=C2/C(=O)Nc3ccccc32)n1`, inactive: 13.7 µM.
With `CC(=O)O[C@H]1CC[C@@]2(C)C(=CC[C@@H]3[C@@H]2CC[C@]2(C)c4nc(N)c(C#N)cc4C[C@@H]32)C1`, the GI50 was inactive: 18.2 µM.
With `COc1cc(/C=C2/CCS(=O)(=O)c3ccc(C)cc3C2=O)cc(OC)c1OC`, the GI50 is inactive: 3.83 µM.
As for `CC(C#N)N(CCc1ccccc1)C(=O)c1ccccc1` (configuration not stated), the GI50 was inactive: > 100 µM.
Turning to `CS(C)(=O)=N/C=C\C(=O)C(Cl)(Cl)Cl`, the GI50 is inactive: > 100 µM.
As for `N=C(N)NC1C(O)C(O)C(O)C(NC(=N)N)C1O` (configuration not stated), the GI50 is inactive: > 100 µM.
In the case of `CCCCCCC1CC(=O)C1(Cl)Cl` (configuration not stated), the GI50 was inactive: 58.7 µM.
The result for `c1c(N2CCOCC2)s[s+]c1N1CCOCC1` reads inactive: > 100 µM.
Turning to `COC(=O)[C@@H]1[C@H]2CC[C@]3(C)[C@@H](OC(C)=O)CC[C@H]3[C@@H]2CC[C@H]1C(C)=O`, the GI50 was inactive: > 100 µM.
On to `O=C1c2ccccc2-c2c1c(-c1ccccc1)c1n2C2(C(=O)c3ccccc3C2=O)C2C(=O)N(c3ccccc3)C(=O)C12` (configuration not stated), for which the GI50 was inactive: 16.1 µM.
For the compound `O=C(CCC(=O)OCC1OC(O)(CC2OC(CO)C(O)C(O)C2O)C(O)C1O)OCc1ccccc1` (configuration not stated), the GI50 was inactive: > 100 µM.
`CN(/N=C\c1ccnc2ccccc12)c1ccccc1`: the GI50 was inactive: 39.2 µM.
The result for `CNC(C)C(O)c1ccc2oc3cc(=O)c4ccccc4c-3nc2c1` (configuration not stated) reads inactive: 13.8 µM; that for `Nc1nc(Cl)cc(NCC2(CO)CC(Cc3ccccc3)C2)n1` (configuration not stated), inactive: > 69.3 µM.
Under `NC(Cc1ccc(O)cn1)C(=O)O` (configuration not stated) stands inactive: > 100 µM.
With `O=C1/C(=C/c2cccs2)N=C(c2ccccc2)N1C1Nc2cc3c(cc2S1)NC(N1C(=O)/C(=C/c2cccs2)N=C1c1ccccc1)S3` (configuration not stated), the GI50 is inactive: 45.4 µM.
Under `O=C(OCc1ccccc1)C(Cc1ccc(OCc2ccccc2)cn1)NC(=O)C(F)(F)F` (configuration not stated) stands inactive: > 100 µM.
With `COc1ccc(N2C(=O)/C(=C/c3ccc(N(CCC#N)CCC#N)cc3C)N=C2c2cc([N+](=O)[O-])ccc2Cl)cc1`, the GI50 was inactive: 6.44 µM.
The result for `COC(=O)C1(OC(=O)Sc2ccccc2)CCN(C)CC1` reads inactive: > 100 µM.
With `Cn1cc[n+](-c2cc(=O)n(C)c(=O)[n-]2)c1`, the GI50 is inactive: > 100 µM.
The result for `O=c1[nH]nc(Cc2ccccc2)n1CCCl` reads inactive: > 100 µM; that for `CCOC(=O)C1C(c2ccc(OC)cc2)c2c(nn(-c3ccccc3)c2O)CC1(O)OCC` (configuration not stated), inactive: 44.4 µM; that for `C=C(CN(C)C)C(=O)c1cc(C)ccc1C`, inactive: 25.6 µM.
`CC(C)C1=CC23CCC4C(C)(C(=O)O)CCCC4(C)C2CC1C1C(=O)N(c2ccc(N4C(=O)C5C6CC7C8(C)CCCC(C)(C(=O)O)C8CCC7(C=C6C(C)C)C5C4=O)cc2)C(=O)C13` (configuration not stated): the GI50 is inactive: 5.09 µM.
In the case of `CCCCNc1nc(O)c2[nH]cnc2n1`, the GI50 was inactive: > 100 µM.
As to `CCCCCCCCCCCCSC(=S)c1c(C)[nH]n(CCCCCCCCCCCC)c1=O`, the GI50 is inactive: > 100 µM.
In the case of `C/C(=N\N=C(/S)N(C)C)c1cccnn1`, the GI50 was active: 0.773 µM.
On to `Brc1ccc(/N=N/N2CCCCC2)cc1`, for which the GI50 was inactive: > 100 µM.
On to `COc1cc(/C=C/c2ccc(C)cc2)cc(OC)c1OC`, for which the GI50 is inactive: 4.85 µM.
